Results as given in PMC12136788.
Some of the results follow.

T1: UNK ZnF1-3 (human, UniProt Q9C0B0 31-174)
T1 sequence: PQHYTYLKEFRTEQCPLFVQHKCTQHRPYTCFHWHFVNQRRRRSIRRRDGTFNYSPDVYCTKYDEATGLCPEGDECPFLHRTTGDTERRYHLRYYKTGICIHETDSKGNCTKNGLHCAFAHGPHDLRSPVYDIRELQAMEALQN

B1: chr17:66333223:66333224:-_ENSMUSG00000034647_ENSMUST00000038116|mus_hu|FALSE|FALSE (ssRNA)
RNA: GGGAGUUCUACAGUCCGACGAUCAACAUCUCCUAGGACAAAAGUAUUUUCUGUAUCUUUUGUAGAUUCAUUAUCAGUAUCUAAAGCAGAACUAAUAAUCUGAACUGCAUUUUUUUGUUGUAAAAUACCUGGCUCUUGAUUAGCCAACAGAGGAUUGAGCAUCA
B2: 152021145_152023285_379_CDS_ENSMUSG00000025437_ENSMUST00000117492|mouse|control|control (ssRNA)
RNA: GGGAGUUCUACAGUCCGACGAUCAAGAGUGGUGAGGUUCACAGUUAGAUAAUGCUUUGUCUCCUGCGAGUGUAUGGUGCUGUGGUCCACUUGCGACUCCCCGCAGCCAACAUAGGAGCACCUAUUCUCCAGGCACGCCCACAGCAACAGAGGAUUGAGCAUCA
B3: chr7:135612270:135612271:-_ENSG00000105887_ENST00000393085|hu_mus|hu_hu_hu_mus_False|18_38 (ssRNA)
RNA: GGGAGUUCUACAGUCCGACGAUCGUUUUUUUCUGAGAUGUUAAAUAGUACUUCAGUGGAAAACAAAACUUAACCUUUUAUUAAUGCGUGUUGUACCAGAAAGCAAAAUUUUAGCUUGCUUCCUUUAAAAAUAUUAACAUUAAGCAACAGAGGAUUGAGCAUCA
B4: chr7:23164667:23164668:+_ENSG00000122550_ENST00000322275|hu_hu|FALSE|FALSE (ssRNA)
RNA: GGGAGUUCUACAGUCCGACGAUCCACAGGUUCAAUCUGAUAUUGGUUUGCUGCAUCCAGCAAAGACUGAACAUUGUUGCUAUUCACGGAAAUUCUAGCAGUAUAAGCAAAUUCCACCAGUUGUUCAAUAAUAUCAGGUUCAGCCAACAGAGGAUUGAGCAUCA
B5: chrX:20248820:20248821:+_ENSMUSG00000001924_ENSMUST00000001989|mus_mus|mus_mus_mus_hu_True|68_88 (ssRNA)
RNA: GGGAGUUCUACAGUCCGACGAUCGGCGAAGUCCGUCACCACAAAGUCAGGCUCUACCAGUGAGGCCGGCAAGGAUUUAAAGCUAAUCUUCUUAGGUACUUUGACCUGACUGACGAUGCCUCCACGGAUGUAGUCGGAGAAGUUCAACAGAGGAUUGAGCAUCA
B6: chr11:77336104:77336105:-_ENSG00000074201_ENST00000525064|hu_mus|hu_hu_hu_mus_False|88_88 (ssRNA)
RNA: GGGAGUUCUACAGUCCGACGAUCCUCACACAUUGCUGUGAACAUCGCCUCCAACGCUGACUUAUCACUGGGCACAAAUCGAAAUUCAGAAAUGGGUUCAACAUCAUCAUUGUCUUCCUCAUCUUCAUCAGAGAGAGGUUCUUUCAACAGAGGAUUGAGCAUCA

These binders were tested against T1, UNK ZnF1-3 (assay: nsRBNS (natural sequence RNA bind-n-seq); RBNS binding buffer (assumed for nsRBNS): 25 mM Tris pH 7.5, 150 mM KCl, 3 mM MgCl2, 0.01% Triton X-100, 500 ug/ml BSA, 20 U/ml SUPERase-In, 4 C; UNK is unkempt and MSI1 is Musashi-1; names of the RNAs are library labels; protein concentration not given here; high values mean tight binding).

Binder	binding signal [enrichment R]
B1	0.719
B2	0.605
B3	0.634
B4	1.52
B5	0.897
B6	1.24
